Measured values as given in the RNAGym collection of RNA variant scans (doi:10.1073/pnas.2313332121).
This sample is rich in variants without activity.

B1: TPR 5TU (parent)
chain: GGAUCUUCUCGAUCUAACAAAAAAGACAAAUCUGCCACAAAGCUUGAGAGCAUCUUCGGAUGCAGAGGCGGCAGCCUUCGGUGGCGCGAUAGCGCCAACGUUCUCAACUAUGACACGCAAAACGCGUGCUCCGUUGAAUGGAGUUUAUCAUG

Variants of: B1
Experiment: polymerase ribozyme fitness, log enrichment relative to wild type (log ratio); higher = more active; in vitro selection for triplet polymerase activity
Method in brief: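 Frozen incubation at −7 °C formed the core of a single, triplicate in vitro selection round applied to PCR-built, transcribed mutant libraries of each subunit of a heterodimeric triplet polymerase ribozyme. Extended constructs were gel-excised, captured with streptavidin beads and amplified by RT-PCR, and input and output libraries were Illumina-sequenced with a filter of ≥10 input reads and ≥1 read per output. Fitness is the logarithm of genotype enrichment relative to wild-type enrichment, with inverse-variance-weighted replicate averaging, and the logarithm is base 2.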
For GGAUCUUCUUGAUCUAACAAAAAAGACAAAUCUGCCACAAAGCUUGAGAGCAUCAUCGGAUGCAGAGGCGGCAGCCUUCGGUGUCGCGAUAGCGCCAACGUUCUCAACUAUGACACGCAAAACGCGUGCUCCGUUGAAUGGAGUUUAUCAUG [C10U U55A G84U], the “polymerase ribozyme fitness (log ratio)” value was -4.1.
With GGAUCUUCUUGAUCUAACAAAAAAGACAAAUCUGCCACAAAGCUUGAGAGCAUCGUCGGAUGCAGAGGCGGCAGCCUUCGGUGGCGCGAUAGCGCCAACGUUCUCAACUAUGACACGCAAAACGCGUGCUCCGUUGAAUGGAGUUUAUCAUG [C10U U55G] the “polymerase ribozyme fitness (log ratio)” value was -3.19.
With GGAUCUUCUUGAUCUAACAAAAAAGACAAAUCUGCCACAAAGCUUGAGAGCAUCUACGGAUGCAGAGGCGGCAGCCUGCGGUGGCGGGAUAGCGCCAACGUUCUCAACUAUGACACGCAAAACGCGUGCUCCGUUGAAUGGAGUUUAUCAUG [C10U U56A U78G C87G] the “polymerase ribozyme fitness (log ratio)” value was at most -4.2.
With GGAUCUUCUUGAUCUAACAAAAAAGACAAAUCUGCCACAAAGCUUGAGAGCAUCUUCGGAUGCAGAGGCGGCAGCCGUCGGUGGCGAGAUCGCGCCAACGUUCUCAAUUAUGACACGCAAAACGCGUGCUCCAUUGAAUGGAGUUUAUCAUG [C10U U77G C87A A91C C108U G133A] the “polymerase ribozyme fitness (log ratio)” value was at most -4.2.
For GGAUCUUCUUGAUCUAACAAAAAAGACAAAUCUGCCACAAAGCUUGAGAGCAUCUUCGGAUGCAGAGGCGGCAGCCUCCAGUGGAGCGAUAGCGCCAACGUUCUAAACUAUGACACGCAAAACGCGUGCUCCGUUGAAUGGAGUUUAUCAUG [C10U U78C G80A C85A C105A], the “polymerase ribozyme fitness (log ratio)” value was at most -4.2.
With GGAUCUUCUUGAUCUAACAAAAAAGACAAAUCUGCCACAAAGCUUGAGAGCAUCUUCGGAUGCAGAGGCGGCAGCCUUCGGAGGCACGAUAGAGCCAACGUUCUCAACUAUGACACGCAAAACGCGUGCUCCCUUGACUGGAGUUUAUCAUG [C10U U82A G86A C93A G133C A138C] the “polymerase ribozyme fitness (log ratio)” value was at most -4.2.
With GGAUCUUCUUGAUCUAACAAAAAAGACAAAUCUGCCACAAAGCUUGAGAGCAUCUUCGGAUGCAGAGGCGGCAGCCUUCGGUGGCGCGAGAGCGUCAACGUUCUCAACUAUGACACGCAAAACGCGUGCCCCGUUGAAUGGAGUUUAUAAUG [C10U U90G C95U U130C C149A] the “polymerase ribozyme fitness (log ratio)” value was at most -4.2.
With GGAUCUUCUUGAUCUAACAAAAAAGACAAAUCUGCCACAAAGCUUGAGAGCAUCUUCGGAUGCAGAGGCGGCAGCCUUCGGUGGCGCGAUAGCGCCAACGUUCUCAACGAUGACACGCAAAACGCGUGCUCCGUUGAAUGGCGUUUAUAAUG [C10U U109G A142C C149A] the “polymerase ribozyme fitness (log ratio)” value was at most -4.2.
For GGAUCUUCUCACUCUAACAAAACAGACAAAUCUGCCACAAAGCUUAAGAGCAUCUUCGGAUGCAGAGGCGGCUGCCUUCCGUGGCGCGAUAGCGCCUACGUUCUCAACAAUGACACGCAAAACGCGUGCUCCGUUGAAUGGAGUAUAUCAUG [G11A A12C A23C G46A A73U G80C A97U U109A U145A], the “polymerase ribozyme fitness (log ratio)” value was at most -4.2.
In the case of GGAUCUUCUCACUCUAACAAAAAAGACAAAUCUGCCACAAAGCUUGAGAGCAUCUUCGGAUGCAGAGGCGGCAGCCUUCGGUGGCGCGAUAGUGCCAACGUUCUCAUCUAUGACACGCAAAACGCGUGCUCCGUUGAAUGGAUUUUAUCAUG [G11A A12C C93U A107U G143U], the “polymerase ribozyme fitness (log ratio)” value is reported as at most -4.2.
For GGAUCUUCUCACUCUAACAAAAAAGACAAAUCUGCCACAAAGCUUGAGAGCAUCUUCGGAUGCAGAGGCGGCAGCCUUCGGUGGCGCGACCGCGCCAACGUUCUCAACUAUGACACGCAAAACGCGUGCUCCGUUGAAUGGAGUUUAUCAUG [G11A A12C U90C A91C], the “polymerase ribozyme fitness (log ratio)” value was at most -4.2.
With GGAUCUUCUCAAUCUGACAAAAAAGACAAAUCUGCCACAAAGCUUGAGAGCAUCUUCGGAUGCAGAGGCGGGAGCCUUCGGUGGCGCGAUAGAGACAACGUUCUCAACUAUGACACGCAAAACGCGUGCUCCGUUGAAUGGAGUUUAUCAUG [G11A A16G C72G C93A C95A] the “polymerase ribozyme fitness (log ratio)” value was at most -4.2.
With GGAUCUUCUCAAUCUACCAAAAAAGACAAAUCUGCCACAAAGCUUGAGCGCAUCUUCGGAUGCAGAGGCGGCAGCCUUCGGUGGUGCGAUUGCGCCAACGUUCUCAACUAUGACACGCAAAACGCGUGCUCCGUUUAAUGGAGUUUAUCAUG [G11A A17C A49C C85U A91U G136U] the “polymerase ribozyme fitness (log ratio)” value was at most -4.2.
For GGAUCUUCUCAAUCUAGUAACAAAGACAAAUCUGCCACAAAGCUUGAGACCAUCUUCGGCUGCAGAGGCGGCAGACUUCGGUGGCGCGAUAGCGCCAACGUUCUCAACUAUGACACGCAAAACGCGUGCUCCGUUGAAUGGAGUUUAUCAUG [G11A A17G C18U A21C G50C A60C C75A], the “polymerase ribozyme fitness (log ratio)” value was at most -4.2.
In the case of GGAUCUUCUCAAUCUAUCAAAAAAGACAAAUCUGCCACAAUGCUUGAGAGCAUUUUCGGUAGCAGAGGCGGCAGCCUUCGGUGGCGCGAUAGCGCCAACGUUCUCAACUAUGACACGCAAAACGCGUGCUCCGUUGAAUGGAGUUUAUCAUG [G11A A17U A41U C54U A60U U61A], the “polymerase ribozyme fitness (log ratio)” value is reported as at most -4.2.
For GGAUCUUCUCAAUCUAACUAAUAAGACAAAUCUGCCACAAAGCUUGAGAGCAUCAUCGGAUGCAGAGGCGGCAGCCUUCGGUGGCGCGAUAGGGUCAACGUUCUCAACUAUGAAACGCAAAACGCGUGCUCCGUGGAAUGGAGUUUAACAUG [G11A A19U A22U U55A C93G C95U C114A U135G U148A], the “polymerase ribozyme fitness (log ratio)” value was at most -4.2.
In the case of GGAUCUUCUCAAUCUAACUAAAAAGACAAAUCUGCAUCAAAGCUUGAGAGCAUCUUCGGAUGCAGAGGCGGCAGCCUUCGGUGGGGCGAUAGCGCUCACGUUCUCAACUAUGACACGCAAAACGCGUGCUCCGUUUAAUGUAGUUUAUCAUG [G11A A19U C36A A37U C85G C96U A97C G136U G141U], the “polymerase ribozyme fitness (log ratio)” value is reported as at most -4.2.
In the case of GGAUCUUCUCAAUCUAACACAAAAGACACAUCUGCCACAAAGCUUGAAAGCAUCUUCGGAUGCAGAGGCGGCAGCCUUCGGUGGCGCGAUAGCGCCAACGUUCUCAACUAUGACAAGCAAAACGCGUGCUCCGUUGAAUGGAGUUUUUCAUG [G11A A20C A29C G48A C116A A147U], the “polymerase ribozyme fitness (log ratio)” value is reported as at most -4.2.
In the case of GGAUCUUCUCAAUCUAACACAAAAGACAAAUCUGUCACAAAGCUUGAGAGCAUCUUCGGAUGCAGAGGCGGCAGCCUUCGGUGGCGCGAUAGCGCUAACGUACUCAACUAUGACACGCAAAACGCGUGCUCCGUUGAAUGGAGUUUAUCAUG [G11A A20C C35U C96U U102A], the “polymerase ribozyme fitness (log ratio)” value is reported as at most -4.2.
